# Screen size: about 360,000 compounds; about 25,000 (6.9%) were called active. The inconclusive results got no clear call from the source; some entries with a clear call stand among them for comparison. Calls follow the shape of the dose curve; as a rule, active = well fitted inhibition curve with a large enough effect; inconclusive = small, poorly fitted or top-dose-only effect; inactive = flat fitted curve, though single readings scatter. Where the call is inconclusive, the potency comes from a doubtful curve fit.
# Target: Luciferin 4-monooxygenase (Photinus pyralis) (UniProt P08659)
# Assay: qHTS profiling assay for firefly luciferase inhibitor/activator using purifed enzyme and Km concentrations of substrates (counterscreen for miR-21 project); also: nearly all actives have a fitted effect of over 55% in size;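 as to activity change, negative = inhibition: plate controls were vehicle for no effect and reference inhibitor for full effect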
# Conditions: purified FLuc, luminescence inhibition; series mostly up to 57.5 µM; activity change, negative = inhibition: at the top concentration
# Method in brief: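 Biochemical qHTS of compounds, final roughly 60 µM downward over six points, against 10 nM purified firefly luciferase using Km concentrations of substrates (10 uM D-luciferin, 10 uM ATP) in Tris acetate pH 7.5 buffer; luminescence output.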
# Potency is read from the fitted curve at half-maximal effect; tags tell the direction and shape of the fitted curve.
# Chain of UniProt P08659 (P08659 whole entry, looked up): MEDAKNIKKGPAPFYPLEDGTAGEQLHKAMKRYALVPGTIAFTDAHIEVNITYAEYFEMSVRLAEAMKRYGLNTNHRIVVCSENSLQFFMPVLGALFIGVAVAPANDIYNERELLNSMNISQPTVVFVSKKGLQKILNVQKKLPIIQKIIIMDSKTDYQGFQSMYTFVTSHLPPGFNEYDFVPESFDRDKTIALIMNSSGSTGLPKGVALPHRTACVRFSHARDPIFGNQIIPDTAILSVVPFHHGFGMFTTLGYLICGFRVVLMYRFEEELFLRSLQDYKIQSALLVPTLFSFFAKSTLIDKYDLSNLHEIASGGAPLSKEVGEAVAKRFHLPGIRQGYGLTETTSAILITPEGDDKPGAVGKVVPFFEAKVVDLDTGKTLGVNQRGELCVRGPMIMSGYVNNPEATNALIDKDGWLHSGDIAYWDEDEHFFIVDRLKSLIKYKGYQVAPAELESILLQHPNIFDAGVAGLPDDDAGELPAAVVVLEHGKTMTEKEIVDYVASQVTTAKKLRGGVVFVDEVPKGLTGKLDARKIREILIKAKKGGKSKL
SMILES,Potency,"activity change, negative = inhibition"
CC(C)c1ccc(Nc2ncccc2C(=O)O)cc1,active: 2.69 µM,
O=C(Oc1ccc(-c2cnc3ccccc3n2)cc1)c1ccc(Br)o1,"inconclusive: 3.38 µM [inhibitor, full curve, poor fit]",
CCc1ccc(/C(C)=N/Nc2cc(Cl)nc(C)n2)cc1,"inconclusive: 19 µM [inhibitor, single point]",
COc1ccccc1/C=C1\SC(=S)N(CCC(=O)NCCCn2ccnc2)C1=O,"inconclusive: 37.9 µM [inhibitor, partial curve, poor fit]",
c1cncc(Nc2nc(-c3ccncc3)cs2)c1,"inconclusive: 23.9 µM [inhibitor, partial curve]",
COc1ccc(C(=O)/C=C2/C(=O)Nc3ccccc32)c(OC)c1,active: 8.49 µM,
O=C(O)c1cccc(C(=O)c2cccc(C(=O)O)c2)c1,"inconclusive: 21.3 µM [inhibitor, partial curve, poor fit]",
CC(=O)Oc1ccc(N(C(C)=O)S(=O)(=O)c2cccs2)c2ccccc12,,inactive: 3.72%
O=C1NN(c2ccc(Br)cc2)C(=O)/C1=C\c1ccc(O)cc1O,"inconclusive: 4.78 µM [inhibitor, partial curve, poor fit]",
CCOc1cccc(Nc2ccc([N+](=O)[O-])cn2)c1,"inconclusive: 19 µM [inhibitor, partial curve]",
COc1ccc(OC2OC3COC(C)(C)OC3C(O)C2NC(C)=O)cc1 (stereo unspecified),"inconclusive: 7.57 µM [inhibitor, partial curve, poor fit]",
COc1ccc(C(=O)c2sc(Nc3cc(Cl)ccc3C)nc2N)cc1OC,"inconclusive: 37.9 µM [inhibitor, partial curve, poor fit]",
Cc1ccc(NC(=O)C(C)OC(=O)/C=C/c2ccccc2)cc1S(=O)(=O)N1CCOCC1 (stereo unspecified),"inconclusive: 13.5 µM [inhibitor, partial curve]",
O=C(O)CCCCCCCCCC(=O)c1cccs1,"inconclusive: 26.9 µM [inhibitor, partial curve, poor fit]",
Cc1ccc(NC(=O)N2CCCCC2)cc1[N+](=O)[O-],"inconclusive: 26.9 µM [inhibitor, partial curve, poor fit]",
Oc1ccc2ccccc2c1/C=N/c1nc2c(s1)CCCC2,"inconclusive: 16.9 µM [inhibitor, partial curve, poor fit]",
Cc1ccn2c(Nc3ccc4c(c3)OCO4)c(-c3ccccn3)nc2c1,"inconclusive: 21.3 µM [inhibitor, partial curve]",
O=C(Nc1ccc(F)cc1F)c1cccc(C(=O)Nc2ccc(F)cc2F)n1,,inactive: -1.19%
NC(=O)C1=C[C@H](C2CCCCC2)C[C@H](OCc2ccc(CO)cc2)O1,active: 10.7 µM,
O=C(N/N=C\C=C\c1ccc2c(c1)OCO2)C1COc2cc3ccccc3cc2O1 (stereo unspecified),"inconclusive: 23.9 µM [inhibitor, single point]",
CC(=O)c1cccc(NC(=O)c2cccc3ccccc23)c1,"inconclusive: 37.9 µM [inhibitor, partial curve, poor fit]",
CCc1ccc2oc(C(=O)Nc3ccc(S(N)(=O)=O)cc3)c(C)c2c1,,inactive: -1.09%
CCCCN(CC)CCNC(=O)c1ccc2c(Cl)c3c(nc2c1)CCC3,"inconclusive: 37.9 µM [inhibitor, partial curve, poor fit]",
COc1ccc(-c2cc3ccc(OCC(N)=O)cc3oc2=O)cc1OC,"inconclusive: 23.9 µM [inhibitor, single point]",

SMILES,Potency,"activity change, negative = inhibition"
COc1ccccc1NC(=O)Nc1nc(C(C)(C)C)cs1,active: 8.49 µM,
COc1ccc(OCCCn2c(=O)oc3ccccc32)cc1,"inconclusive: 30.1 µM [inhibitor, partial curve, poor fit]",
CC(CNc1nc2ccc(Cl)cc2n2cnnc12)c1ccccc1 (stereo unspecified),,inactive: -16.4%
Cn1c(=O)n(CCCOc2ccc(Br)cc2)c2ccccc21,"inconclusive: 26.9 µM [inhibitor, single point]",
C#CCOC(=O)c1csc2nnsc12,"inconclusive: 26.9 µM [inhibitor, partial curve, poor fit]",
COc1ccccc1OCc1ccc(C(=O)n2nc(C)c(Cl)c2C)o1,"inconclusive: 37.9 µM [inhibitor, partial curve, poor fit]",
C/C(=N\NC(=O)c1ccc(Cl)c(Cl)c1)c1ccccn1,"inconclusive: 8.49 µM [inhibitor, partial curve, poor fit]",
O=C(Cc1cccs1)NCc1ccc(Cl)cc1,"inconclusive: 37.9 µM [inhibitor, partial curve, poor fit]",
COC(=O)c1ccc(OCC(=O)Nc2nn(-c3ccccc3)nc2C(N)=O)cc1,"inconclusive: 0.169 µM [inhibitor, full curve]",
CCn1nnc(NC(=O)c2ccc(-c3ccc(Cl)cc3)o2)n1,active: 16.9 µM,
C=CCSc1nc(N)c2c3c(sc2n1)CN(C)CC3,"inconclusive: 23.9 µM [inhibitor, partial curve]",
CCOC(=O)N/N=C\c1cccc(OC)c1,"inconclusive: 23.9 µM [inhibitor, single point]",
O=C(Nc1nnc(C2CC2)s1)C1CCCCC1,,inactive: -15.1%
CC(=O)Nc1ccc(Nc2nc3ccccc3n3cnnc23)cc1,"inconclusive: 15.1 µM [inhibitor, partial curve, poor fit]",
O=c1[nH]c(CSc2nc3ccccc3[nH]2)nc2c1cnn2-c1ccccc1,"inconclusive: 26.9 µM [inhibitor, single point]",
Cn1nc2sc3ccccc3n2c(=O)c1=O,,inactive: -1.99%
O=C(COC(=O)c1n[nH]c2ccccc12)Nc1ccccc1,"inconclusive: 19 µM [inhibitor, partial curve]",
c1ccc(OCCOc2cccc3cccnc23)cc1,"inconclusive: 21.3 µM [inhibitor, partial curve]",
C=CCn1c(C)cc(C(=O)CSc2nnc3c(Cl)cc(Cl)cn23)c1C,"inconclusive: 30.1 µM [inhibitor, single point]",
Cc1ccc(NC(=O)N/C=C/c2ccco2)cc1,"inconclusive: 23.9 µM [inhibitor, single point]",
Cc1occc1C(=O)Nc1ccc(S(N)(=O)=O)cc1,"inconclusive: 0.0107 µM [inhibitor, partial curve, poor fit]",
Oc1ccc(Br)cc1-c1cc(-c2ccccc2Cl)[nH]n1,"inconclusive: 37.9 µM [inhibitor, single point]",
CC(C)(C)OC(=O)N[C@@H](Cc1ccccc1)c1nnc(S(=O)(=O)Cc2cccc(F)c2)o1,"inconclusive: 12 µM [inhibitor, partial curve, poor fit]",
CCc1noc(C)c1C(=O)NNC(=O)COc1ccc(C)cc1,,inactive: 3.83%

SMILES,Potency,"activity change, negative = inhibition"
CNC(=O)CO/N=C/c1ccc(N(C)C)cc1,"inconclusive: 37.9 µM [inhibitor, partial curve, poor fit]",
CCOCCCNc1nc2cc(OC)c(OC)cc2c2nc(-c3ccccc3)nn12,,inactive: 3.41%
Cc1cc(Nc2ccc(C)c(Cl)c2)nc(N2CCOCC2)n1,,inactive: -11.8%
CCc1nnc(NC(=O)C2CC(=O)N(CCc3ccccc3)C2)s1 (stereo unspecified),,inactive: -2.08%
COc1ccccc1OCCCCn1ncc2ccc(OC)c(OC)c2c1=O,,inactive: 5.78%
Cc1ccc2oc(-c3ccc(C)c(NC(=O)Cc4cccs4)c3)nc2c1,"inconclusive: 0.953 µM [inhibitor, partial curve, poor fit]",
Cc1ccc(C)c(NC(=O)c2cc(-c3cc(C)c(C)cc3O)n[nH]2)c1,"inconclusive: 3.38 µM [inhibitor, partial curve, poor fit]",
O=C(NCCc1ccncc1)Nc1cccc(Cl)c1,,inactive: -0.0428%
CCCn1nnc2sc3c(c2c1=O)CCC(C)C3 (stereo unspecified),active: 15.1 µM,
C=CCOc1ccc(C2NC(=O)NC(C)=C2C(=O)OC)cc1 (stereo unspecified),"inconclusive: 26.9 µM [inhibitor, single point]",
Cc1noc(C)c1C(=O)Nc1nc(-c2cc(F)ccc2F)cs1,"inconclusive: 15.1 µM [inhibitor, partial curve]",
Cc1cccc(Cn2cccc2CNS(=O)(=O)c2ccc(C)c(C)c2)c1,,inactive: -0.227%
CN1CCSc2ccc(C(=O)NCc3ccccc3)cc21,"inconclusive: 37.9 µM [inhibitor, partial curve, poor fit]",
O=C(O)CCC(=O)Nc1nc2ccccc2s1,,inactive: -13.4%
O=C(CSc1nnc(Nc2ccccc2F)s1)NC1CCCC1,"inconclusive: 19 µM [inhibitor, partial curve]",
COc1cccc(NC(=O)N2CCN(C(=O)c3nsc4ccccc34)CC2)c1,,inactive: 5.08%
COc1ccc(NC(=O)N2CCN3CCCCC3C2)cc1OC (stereo unspecified),,inactive: -3.74%
CCn1cc(Cl)c(C(=O)Nc2nccs2)n1,"inconclusive: 30.1 µM [inhibitor, single point]",
COc1ccccc1/C=C\C=N\n1c(-c2ccc(Cl)cc2)n[nH]c1=S,"inconclusive: 7.57 µM [inhibitor, partial curve, poor fit]",
c1ccc(COc2ccc(OCCCCN3CCCC3)cc2)cc1,active: 12 µM,
O=Cc1c(Nc2ccccc2Cl)nc2ccccn2c1=O,"inconclusive: 33.8 µM [inhibitor, single point]",
COc1ccc(NC(=O)c2ccccc2)cc1,"inconclusive: 11.2 µM [inhibitor, partial curve, poor fit]",
COc1cc(C2NC(=O)c3c(sc4c3CCN(C)C4)N2)ccc1OC(=O)c1ccccc1 (stereo unspecified),"inconclusive: 37.9 µM [inhibitor, partial curve, poor fit]",

# — PubChem BioAssay AID588342 (National Center for Advancing Translational Sciences (NCATS), 2011)
